Values joined by “and” are separate entries in the source; they are usually repeats but may differ in a detail not shown here. Equal entries are not always repeated. Marks after values point to notes of the source that are not given here.
Legend:
[1] = type: in vitro ADME, human
Procedure: The stability of the […] pellets (as formulated in Examples 1 and 2) in human chyme at 37° C. was evaluated. Specifically, […] pellets were incubated in five different chyme specimens. […] The mean relative change in absorbance at 405 nm (ΔAb405) measured at each time point for all of the chyme specimens showing the release and relative stability of the […] beta-lactamase activity is presented in FIG. 3.

[2] = Half-life of P3A beta-lactamase activity in clarified chyme; type: in vitro ADME, human
Procedure: Stability of P3A in human chyme was evaluated in both raw and clarified chyme specimens. Incubations of P3A at 37° C. in the chyme specimens were performed in triplicate for each chyme specimen (1 to 5) and the mixed thyme matrix. Samples were removed at 0, 30, 60, 120, 180, 240, 300, and 360 minutes and analysed for beta-lactamase enzymatic activity using a CENTA beta-lactamase substrate. The beta-lactamase activity of the chyme/P3A specimens was determined based on the change of absorbance at 405 nm per min (ΔA405/min) in the first minute (linear portion) of the reaction. The ΔA405/min values were normalized to a 1 cm path length by dividing the ΔA405/min value by the determined path length. The mean of the normalized ΔA405/min values of the individual replicates for each chyme specimen were used to calculate the relative beta-lactamase activity at each time point.

[3] = In vitro biochemical assay of ceftriaxone hydrolysis by P1A or P3A dissoluted from pellets
Procedure: The beta-lactamase enzymatic activity of formulated pellets containing P1A or P3A (SYN-004) was determined using an in vitro biochemical assay with ceftriaxone as a substrate. The pellets were formulated as previously described in Examples 1 and 2. Specifically, P1A and P3A were dissoluted from formulated pellets in 50 mM Potassium Phosphate Buffer 6.8 buffer (pellets manufactured using P1A or P3A drug substance sprayed-dried onto sucrose cores, then sprayed-dried with a protective enteric coating). The concentration of P1A and P3A in the dissolution buffer was determined by HPLC analytical methods and the beta-lactamase enzymatic activity of the dissoluted pellets was evaluated for hydrolysis of ceftriaxone using an in vitro biochemical assay.

intestinal microbiome [4] = experiment: P3A-mediated microbiome protection in humanized pigs, 16S rRNA sequencing of fecal DNA; type: in vivo, gnotobiotic pigs populated with human adult fecal microflora; details: humanized pigs treated with CRO
intestinal microbiome [5] = experiment: Whole genome shotgun sequencing and comparative metagenomics of pig fecal samples; type: in vivo, gnotobiotic pigs populated with human adult fecal microflora; details: compared to Group 3 and Group 1
Procedure: In order to study the ability of P3A to protect the intestinal microbiome from antibiotics-induced (e.g., ceftriaxone (CRO)-induced) damage, pig fecal samples obtained from the study described above were subjected to additional genomic analysis. Specifically, the 16S rRNA gene V1V2 region was sequenced. In addition, fecal DNA was subjected to whole genome shotgun sequencing. Shotgun sequencing was performed using Illumina HiSeq RAPID RUN, targeting 100 bp single read with the aim to achieve approximately 10-20 million reads per sample (Table 6),
These sequence data were classified taxonomically to identify microbial communities associated with the pig fecal samples. Taxonomic classification was performed using bioInformatics algorithms and curated genome databases. Briefly, raw, unassembled shotgun sequence reads were probed against curated GeneBook bacterial and viral databases using GENIUS software package for rapid identification of bacteria communities as well as their relative abundance (Hasan of al., 2014, PLoS ONE 9:e97699; Lax et al., 2014, Science 345:1048). The analyses identified 139 bacterial strains, 79 species, and 35 genera among the treatment groups (Table 7). […]
As the number of sequence reads generated from each individual sample was variable, subsamples from each sample were chosen to represent a subset of 10 million reads. […]

B1: P3A: beta-lactamase of SEQ ID NO: 1; D276N mutation relative to P1A (protein)
chain: TEMKDDFAKLEEQFDAKLGIFALDTGTNRTVAYRPDERFAFASTIKALTVGVLLQQKSIEDLNQRITYTRDDLVNYNPITEKHVDTGMTLKELADASLRYSDNAAQNLILKQIGGPESLKKELRKIGDEVTNPERFEPELNEVNPGETQDTSTARALVTSLRAFALEDKLPSEKRELLIDWMKRNTTGDALIRAGVPDGWEVADKTGAASYGTRNDIAIIWPPKGDPVVLAVLSSRDKKDAKYDNKLIAEATKVVMKALNMNGK
duration of high-level P3A activity [1]: at least 6 hours | loss in overall beta-lactamase activity [1]: less than 50% | T1/2 (min) of beta-lactamase activity ([2]; Mixed Chyme, 37° C.): > 300 min and 325 min | relative stability ([2]; chyme 3, 37° C., bound within the 360 min incubation): > 360 min | T1/2 (min) of beta-lactamase activity ([2]; clarified Chyme 1, 37° C.): 243 min | T1/2 (min) of beta-lactamase activity ([2]; clarified Chyme 2, 37° C.): > 300 min and 342 min | T1/2 (min) of beta-lactamase activity ([2]; clarified Chyme 3, 37° C., extrapolated by linear regression from 120 to 360 min): 394^(a) min | T1/2 (min) of beta-lactamase activity ([2]; clarified Chyme 4, 37° C.): > 300 min and 334 min | T1/2 (min) of beta-lactamase activity ([2]; clarified Chyme 5, 37° C.): > 300 min and 328 min | fold greater catalytic rate of ceftriaxone than P1A ([3]; ceftriaxone as substrate): 3.4 fold | mean kcat value ([3]; ceftriaxone as substrate, enzyme dissoluted from formulated pellets, three concentrations): 139 s⁻¹ | activity of dissoluted material for hydrolysis of ceftriaxone vs drug substance reference standard ([3]; dissoluted pellet material vs respective reference standard): comparable | protection of the microbiome (conclusion) (intestinal microbiome [4]): can protect the human microbiome | abundance of gram negative organisms (intestinal microbiome [5]): less abundant | abundance of gram positive organisms (intestinal microbiome [5]): overabundant

Source: patent publication US12178917B2, “Beta-lactamase formulations and uses thereof” (Theriva Biologics, Inc., priority 2014, dated 2024)
